Paper PMC12136788
Some of the results follow.

B1: chr1:230810825:230810826:+_ENSG00000135775_ENST00000366669|hu_hu|motif|central (ssRNA)
RNA: GGGAGUUCUACAGUCCGACGAUCUUUCUCAUGAAAUGCAUCGGGAUUCCCAGGAUUAAAAAGCGAGGGUAACUUUUCUUCGGAUCCUUGUACUAUUUGUGGCCAAACAGAAUUCACCAAAAAGUCAUAUCCAGGAACAGUAUUCAACAGAGGAUUGAGCAUCA
B2: chr11:4127340:4127341:+_ENSG00000167325_ENST00000300738|hu_mus|hu_hu_hu_mus_False|38_58 (ssRNA)
RNA: GGGAGUUCUACAGUCCGACGAUCGGCAUAGUCAGGGUGCUUCGUGGUCAAGGUCGCGGCUGUCUCAGCAGCCAGGGUAUCUAGUUCCACUGUGGUGACCCCACUGUAUAGGCCUUGGAUUACUUUCAUGGUGAUCUGAGCAGGCAACAGAGGAUUGAGCAUCA
B3: chr6:110421769:110421770:-_ENSG00000112290_ENST00000392587|hu_mus|motif|central (ssRNA)
RNA: GGGAGUUCUACAGUCCGACGAUCGCUUUCUUACUCCAGCCAGUCUACUUCAUCGAACUCCGAGUCAUCUUCCGAGUCGCGGUACUCCACAGCAAUGCGGCGAGACAGGAUGGUGGCCACGUCGUUUUCAAUCCGCUCGUGUUUCAACAGAGGAUUGAGCAUCA
B4: chr9:95013113:95013114:-_ENSG00000196305_ENST00000443024|hu_hu|hu_hu_hu_mus_False|78_78 (ssRNA)
RNA: GGGAGUUCUACAGUCCGACGAUCCUCAGUCAGAAAGGGCGUGUAAGGGGCCAUCAGUCUGCAAAGAGAAAGCAGGACACUGAACAGUGUCUCCAGAGCCAUGACACAGUCUUCCACCCCACUCUCACCCUUUAACCUCCUCCUCAACAGAGGAUUGAGCAUCA
B5: chr12:39756943:39756944:-_ENSG00000139116_ENST00000544797|hu_mus|hu_hu_hu_mus_False|58_68 (ssRNA)
RNA: GGGAGUUCUACAGUCCGACGAUCGGUUUGGCUGUUACCCCCAAGGGAAUCCUGCAAGAGUCUUGUCAGCUUGGAAUCUCUAUAGGGGACAUGGGUGGCUCUCUUGCUCUUGUCCCCCAAGGCGCUGAUUACAUUCCCAAGAGCCAACAGAGGAUUGAGCAUCA
B6: chr7:149068622:149068623:-_ENSMUSG00000025139_ENSMUST00000001950|mus_hu|mus_mus_mus_hu_False|18_38 (ssRNA)
RNA: GGGAGUUCUACAGUCCGACGAUCGUGAGGCCUCUGAGUGUGGCUUGUGGUCUGUCCUGGGUUAGAGUUGUUAAUAUCACGGAACAUACCAUCUAGAGAGGUUCUGCCCCGCCUGACCAUCCACCCUCCAAUGGAGAAGAAAUCCAACAGAGGAUUGAGCAUCA
B7: chr4:129324761:129324762:-_ENSMUSG00000003731_ENSMUST00000102590|mus_hu|FALSE|FALSE (ssRNA)
RNA: GGGAGUUCUACAGUCCGACGAUCCAAGCGUACAAGAUUAAUAUUCUGUCAGAGCAAGAACACUUUGUUUUGGAUUUCUCCCUUCCCCUCCCACCUCCCACCUCUGGAAUAUACCGUCUGCUCAAGUACCCAAGAUAAGAGUUACAACAGAGGAUUGAGCAUCA
B8: 52911994_52912114_3718_CDS_ENSG00000134744_ENST00000257177|human|control|control (ssRNA)
RNA: GGGAGUUCUACAGUCCGACGAUCCUGCCGAAUGCUAAUUACAUAUUCCUUGAAAUCAAACUCUUCAGUAUAGAAACGAAGCAGUCCCAGCCAAAGCUCCCCUAAUGAUUCUGUGUUCUUUCCAAGUGAAGGUAAACGCUUUUUCAACAGAGGAUUGAGCAUCA
B9: chr11:86516163:86516164:-_ENSMUSG00000047126_ENSMUST00000103186|mus_hu|FALSE|FALSE (ssRNA)
RNA: GGGAGUUCUACAGUCCGACGAUCAAGGCUGUCUUUCUUGCACAGCUCUACACUCUGUUUCCAGCGAUUGUUGCCUUUGAAGAGAUAAGCAGCAAUUCUCCUGAACUCAAUGAGUUCAUGUUUUUCCAAACGCUGAGCAAGCGACAACAGAGGAUUGAGCAUCA
B10: chr1:44133529:44133530:+_ENSG00000066135_ENST00000372396|hu_hu|FALSE|FALSE (ssRNA)
RNA: GGGAGUUCUACAGUCCGACGAUCAAACUCAGCUGCUUCUGGCGUGGGCAGAGUAUGGUCAAUAACUGUGUUGUCCUUCCCAGCUUUCCAAAGUUUGUACCUUUCUGGCUGGAACUUUCUCACAAACACAUCCAUGGAGAUCUUCAACAGAGGAUUGAGCAUCA
B11: chr2:30381511:30381512:+_ENSG00000119801_ENST00000261353|hu_hu|motif|central (ssRNA)
RNA: GGGAGUUCUACAGUCCGACGAUCCAUGUGGCGGCCAGUGAGCAUGACCCGAUCUUGAACUUCACUGUACUGCAGGUUAACGGCCUUGUUAAAAAGAAAUGCUCUGCCAGUGGCGCCUGUGAAACGAGUGGAGAUGAGUUCUGACAACAGAGGAUUGAGCAUCA
B12: chr7:36506639:36506640:-_ENSMUSG00000043671_ENSMUST00000051377|mus_mus|FALSE|FALSE (ssRNA)
RNA: GGGAGUUCUACAGUCCGACGAUCGAACAGCACCAGUGCCUGCAGCAGCAUCAUGAACUGGUUAAAUUGCCAUGUCAGGCUAAAGAGAAAAGUUGAUACGAAAAUGGCAAGAAGUGUCAGCCUUUCAGAAAGAGGCUGUAAAUUCAACAGAGGAUUGAGCAUCA
B13: 33597688_33597808_1080_3pUTR_ENSMUSG00000042834_ENSMUST00000171533|mouse|control|control (ssRNA)
RNA: GGGAGUUCUACAGUCCGACGAUCUCUAGAGAAGAACAUUCCAGGAAACAAAGUACCGACACCUUCUUAGAACAUGGAAAUAAAAACAACUCCACCAGAGCUACCUCGCCAAGGAGCAUGUUGAAAGUCCAAAAUAGCACCAUUCAACAGAGGAUUGAGCAUCA
B14: 53565299_53565799_12336_CDS_ENSG00000086758_ENST00000262854|human|control|control (ssRNA)
RNA: GGGAGUUCUACAGUCCGACGAUCGCGCUUGACAUCAAAGUCGAGGACACGAAUGUAGUCUACCAGGACAGCAAAAGGCCCAUCAGCAAGGUGGGUCGUGGACUGCCGUAGGAUCUGGUUUAACACAGUGCGGUGAGUCUCUGCCAACAGAGGAUUGAGCAUCA

molecular target: T1, UNK ZnF1-3 (human, UniProt Q9C0B0 31-174); assay: nsRBNS (natural sequence RNA bind-n-seq); RBNS binding buffer (assumed for nsRBNS): 25 mM Tris pH 7.5, 150 mM KCl, 3 mM MgCl2, 0.01% Triton X-100, 500 ug/ml BSA, 20 U/ml SUPERase-In, 4 C; UNK is unkempt and MSI1 is Musashi-1; names of the RNAs are library labels; protein concentration not given here; high values mean tight binding
T1 sequence: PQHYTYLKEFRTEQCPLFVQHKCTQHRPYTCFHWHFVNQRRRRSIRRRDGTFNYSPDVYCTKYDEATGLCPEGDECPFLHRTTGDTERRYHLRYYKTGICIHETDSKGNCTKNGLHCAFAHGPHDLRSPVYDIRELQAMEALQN

Row | Binder | binding signal
1 | B1 | 1.08 enrichment R
2 | B2 | 0.837 enrichment R
3 | B3 | 0.613 enrichment R
4 | B4 | 1.44 enrichment R
5 | B5 | 0.708 enrichment R
6 | B6 | 0.75 enrichment R
7 | B7 | 0.879 enrichment R
8 | B8 | 1.12 enrichment R
9 | B9 | 0.578 enrichment R
10 | B10 | 0.628 enrichment R
11 | B11 | 1.1 enrichment R
12 | B12 | 1.75 enrichment R
13 | B13 | 2.04 enrichment R
14 | B14 | 0.651 enrichment R
